The campaign covered roughly 43,000 compounds. About 200 (0.47%) were called active. Another 12% or so got no clear call; they are omitted. Calls come from the whole dose curve; as a rule, active = well fitted cell-killing curve with a large enough effect; inconclusive = small, poorly fitted or top-dose-only effect, or effect the other way; inactive = flat fitted curve, though single readings scatter. This is one part of the list.

The text below walks through data of PubChem BioAssay AID1508642 (National Center for Advancing Translational Sciences (NCATS), 2021).
% is set by controls: 0 for no effect and ±100 for the full control effect.

The assay in a line: Cell viability qHTS assay in S16 Pmp22-F2sN cells. Note: nearly all actives have a fitted effect of over 65% in size. The following applies: S16 Pmp22-F2sN Schwann cells viability, CellTiter-Glo, 24 h; series mostly up to 57.5 µM; activity change, negative = cytotoxicity: at the top concentration. In outline:
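Used to flag compounds lowering reporter output through toxicity, this quantitative HTS measures ATP-based CellTiter-Glo luminescence in S16 Pmp22-F2sN Schwann cells after 24 h compound exposure at 37C.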
On to `CCOC(=O)c1ccc(NC(=O)CSc2nccn2-c2cc(C)cc(C)c2)cc1`, for which the “activity change, negative = cytotoxicity” value was inactive: 12.7%.

In the case of `Cc1cc(C)cc(NC(=O)CNS(=O)(=O)c2ccc3nc(C)sc3c2)c1`, the “activity change, negative = cytotoxicity” value is inactive: -10.9%.

On to `CCn1cc(C(=O)NCCc2ccc(C)cc2)c(=O)c2cc(S(=O)(=O)N3CCc4ccccc4C3)ccc21`, for which the “activity change, negative = cytotoxicity” value was inactive: 2.06%.

For `Cc1ccc(-c2noc(-c3cc(-c4ccc(F)cc4)n[nH]3)n2)cc1`, the “activity change, negative = cytotoxicity” value was inactive: 0.443%.

Regarding `O=C(Nc1c(-c2ccccc2)nc2ccccn12)c1ccccc1F`, the “activity change, negative = cytotoxicity” value is inactive: 0.019%.

For the compound `Cc1ccc(SCc2nc(-c3ccc(C(=O)Nc4cc(C)ccc4C)cc3)oc2C)cc1`, the “activity change, negative = cytotoxicity” value was inactive: -0.828%.

As to `O=C(Nc1ccc2[nH]c(=O)c(=O)[nH]c2c1)c1cccc(F)c1`, the “activity change, negative = cytotoxicity” value was inactive: -7.97%.

`Cc1ccc(NC(=O)CSc2nc3ccc(NC(=O)COc4ccc(C)cc4)cc3s2)cc1`: the “activity change, negative = cytotoxicity” value is inactive: 17%.

Regarding `COc1ccccc1N1CCN(C(=O)CCn2nc(C)c(S(=O)(=O)N3CCCC3)c2C)CC1`, the “activity change, negative = cytotoxicity” value is inactive: -21.6%.

With `Cc1ccccc1C1=CCN(c2ncc(NC(=O)c3ccc(Cl)cc3)cc2C(=O)O)CC1`, the “activity change, negative = cytotoxicity” value is inactive: -2.86%.

Consider `Cc1nc2nc(SCC(=O)NCCc3ccc(Cl)cc3)nn2c(C)c1Cc1ccccc1Cl`, for which the “activity change, negative = cytotoxicity” value was inactive: 14.4%.

Consider `Cc1nc2c(-c3ccccc3)c(C)nn2c(C)c1CCC(=O)Nc1ccccc1F`, for which the “activity change, negative = cytotoxicity” value was inactive: -0.634%.

With `CS(=O)(=O)n1nc(-c2ccco2)nc1NCc1ccccc1Cl`, the “activity change, negative = cytotoxicity” value is inactive: -18%.

For the compound `COc1ccc(C(=O)c2cn(Cc3cccc(C)c3)c3cc4c(cc3c2=O)OCO4)cc1`, the “activity change, negative = cytotoxicity” value is inactive: 13%.

In the case of `COc1cc(Cl)c(C)cc1NC(=O)CSc1cc(-c2ccccc2)nc(C)n1`, the “activity change, negative = cytotoxicity” value is inactive: -0.509%.

On to `CCOC(=O)c1[nH]c(C)c(C(=O)NCc2cccc(OC)c2)c1C`, for which the “activity change, negative = cytotoxicity” value was inactive: -15.8%.

As to `COc1ccc(CC(=O)NCCc2csc(-c3ccc(C(F)(F)F)cc3)n2)cc1`, the “activity change, negative = cytotoxicity” value is inactive: 0.213%.

With `CCc1ccccc1NC(=O)Cn1c(=O)n(CC(=O)NCCc2ccccc2)c(=O)c2ccccc21`, the “activity change, negative = cytotoxicity” value is inactive: 3.14%.

As for `COc1ccc(-c2noc(-c3ccc(C)cc3Cl)n2)cc1OC`, the “activity change, negative = cytotoxicity” value was inactive: -9.27%.

Turning to `COc1ccc(C2CC(=O)Nc3c2c(=O)n(C)c2nc4ccccc4n32)cc1` (configuration not stated), the “activity change, negative = cytotoxicity” value was inactive: 3.14%.

For the compound `Cn1c(=O)c2c(SCC(=O)NCc3ccc(F)cc3)nc(-c3ccccc3Cl)nc2n(C)c1=O`, the “activity change, negative = cytotoxicity” value is inactive: 11.3%.

As to `COC(=O)c1sc2cccc(F)c2c1S(=O)(=O)Nc1ccc(C)cc1Cl`, the “activity change, negative = cytotoxicity” value was inactive: 0.339%.

For `Cc1c(/C=C(\C#N)C(=O)Nc2cccc(Cl)c2)c2ccccc2n1Cc1ccccc1`, the “activity change, negative = cytotoxicity” value is inactive: -2.91%.

On to `CCOc1ccc(OCC)c(NC(=O)CCc2nc3cccnc3n2Cc2cccs2)c1`, for which the “activity change, negative = cytotoxicity” value is inactive: -8.51%.

In the case of `COc1ccc(-c2nc(C)c(CCNC(=O)c3c(F)cccc3F)s2)cc1`, the “activity change, negative = cytotoxicity” value is inactive: -5.54%.

For `Cc1cccc(Cc2c(C)nc3nc(SCc4ccccc4Cl)nn3c2C)c1`, the “activity change, negative = cytotoxicity” value is inactive: -2.51%.

For the compound `Cc1ccc(C)c(Cn2c(=O)n(CCC(=O)NCc3ccc4c(c3)OCO4)c(=O)c3sccc32)c1`, the “activity change, negative = cytotoxicity” value was inactive: 5.86%.
